The chains are these.
T1: RBFOX1 RRM (Homo sapiens, UniProt Q9NWB1 109-208)
T1 sequence: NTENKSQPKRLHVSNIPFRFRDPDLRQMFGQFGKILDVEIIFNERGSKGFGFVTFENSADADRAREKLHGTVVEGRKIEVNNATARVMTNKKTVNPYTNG

B1: UGUGGGA (DNA:RNA)
RNA: GGGAGACCGGAAUUCAGAUUGUCCUGUGGGAUUAAAUCCCGUCGUAGCCACCA
DNA 1: CAATCTGAATTCCGGTCTCCC
DNA 2: TGGTGGCTACGACGGGATT
B2: CCAGCUG (DNA:RNA)
RNA: B1 RNA with U25C, G26C, U27A, G29C, G30U, A31G
DNA 1: CAATCTGAATTCCGGTCTCCC
DNA 2: TGGTGGCTACGACGGGATT
B3: UACUUGA (DNA:RNA)
RNA: B1 RNA with G26A, U27C, G28U, G29U
DNA 1: CAATCTGAATTCCGGTCTCCC
DNA 2: TGGTGGCTACGACGGGATT
B4: UUUGGUA (DNA:RNA)
RNA: B1 RNA with G26U, G30U
DNA 1: CAATCTGAATTCCGGTCTCCC
DNA 2: TGGTGGCTACGACGGGATT
B5: GGAUCUG (DNA:RNA)
RNA: B1 RNA with U25G, U27A, G28U, G29C, G30U, A31G
DNA 1: CAATCTGAATTCCGGTCTCCC
DNA 2: TGGTGGCTACGACGGGATT
B6: AAGCUCG (DNA:RNA)
RNA: GGGAGACCGGAAUUCAGAUUGUCCAAGCUCGUUAAAUCCCGUCGUAGCCACCA
DNA 1: CAATCTGAATTCCGGTCTCCC
DNA 2: TGGTGGCTACGACGGGATT
B7: GACAACG (DNA:RNA)
RNA: B6 RNA with A25G, G27C, C28A, U29A
DNA 1: CAATCTGAATTCCGGTCTCCC
DNA 2: TGGTGGCTACGACGGGATT
B8: AUUAGAU (DNA:RNA)
RNA: B1 RNA with U25A, G26U, G28A, G30A, A31U
DNA 1: CAATCTGAATTCCGGTCTCCC
DNA 2: TGGTGGCTACGACGGGATT
B9: UAAUACU (DNA:RNA)
RNA: B6 RNA with A25U, G27A, C28U, U29A, G31U
DNA 1: CAATCTGAATTCCGGTCTCCC
DNA 2: TGGTGGCTACGACGGGATT
B10: CAGUCAC (DNA:RNA)
RNA: B6 RNA with A25C, C28U, U29C, C30A, G31C
DNA 1: CAATCTGAATTCCGGTCTCCC
DNA 2: TGGTGGCTACGACGGGATT
B11: CUUGCUA (DNA:RNA)
RNA: B1 RNA with U25C, G26U, G29C, G30U
DNA 1: CAATCTGAATTCCGGTCTCCC
DNA 2: TGGTGGCTACGACGGGATT
B12: UCGAGAU (DNA:RNA)
RNA: B1 RNA with G26C, U27G, G28A, G30A, A31U
DNA 1: CAATCTGAATTCCGGTCTCCC
DNA 2: TGGTGGCTACGACGGGATT
B13: ACGAUGC (DNA:RNA)
RNA: B6 RNA with A26C, C28A, C30G, G31C
DNA 1: CAATCTGAATTCCGGTCTCCC
DNA 2: TGGTGGCTACGACGGGATT
B14: CGAUUAU (DNA:RNA)
RNA: B6 RNA with A25C, A26G, G27A, C28U, C30A, G31U
DNA 1: CAATCTGAATTCCGGTCTCCC
DNA 2: TGGTGGCTACGACGGGATT
B15: GCGAUAA (DNA:RNA)
RNA: B6 RNA with A25G, A26C, C28A, C30A, G31A
DNA 1: CAATCTGAATTCCGGTCTCCC
DNA 2: TGGTGGCTACGACGGGATT
B16: UAAGGGG (DNA:RNA)
RNA: B1 RNA with G26A, U27A, A31G
DNA 1: CAATCTGAATTCCGGTCTCCC
DNA 2: TGGTGGCTACGACGGGATT
B17: CACACCU (DNA:RNA)
RNA: B6 RNA with A25C, G27C, C28A, U29C, G31U
DNA 1: CAATCTGAATTCCGGTCTCCC
DNA 2: TGGTGGCTACGACGGGATT
B18: UGCGGCU (DNA:RNA)
RNA: B1 RNA with U27C, G30C, A31U
DNA 1: CAATCTGAATTCCGGTCTCCC
DNA 2: TGGTGGCTACGACGGGATT
B19: CGUGGUU (DNA:RNA)
RNA: B1 RNA with U25C, G30U, A31U
DNA 1: CAATCTGAATTCCGGTCTCCC
DNA 2: TGGTGGCTACGACGGGATT
B20: CCCGCGU (DNA:RNA)
RNA: B1 RNA with U25C, G26C, U27C, G29C, A31U
DNA 1: CAATCTGAATTCCGGTCTCCC
DNA 2: TGGTGGCTACGACGGGATT

Changes are numbered by the printed parent chain; changes in the protein carry UniProt numbers. This is one part of the list.

For the assay, the target named is T1, RBFOX1 RRM. Kind of assay: EMSA; HiTS-Eq, 1 nM pool, 10 min; buffer printed only for the single-RNA assays: 10 mM Tris pH 7.5, 150 mM NaCl, 3.4 mM EDTA, 0.001% NP-40, 30 C. To be noted: tags: His6 N-terminal (pET28a); label: 5' 32P. The procedure, abridged: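 Purified wild-type or mutant RbFox RRM at increasing concentrations was equilibrated with 1 nM of 5′-radiolabelled RNA carrying 7 randomized nucleotides for 10 min in 50 µL. Unbound RNA was separated by 8% native PAGE and sequenced. Relative association constants came from read-count changes of each RNA species compared with the control reaction, normalised to the cognate motif.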
(A gel shift assay detects complexes by their altered migration in electrophoresis.)
Turning to B1, the binding signal is 0.00762 KA relative to UGCAUGU.
To B2 belongs 0.00651 KA relative to UGCAUGU.
The figure for B3 is 0.0169 KA relative to UGCAUGU.
The figure for B4 is 0.017 KA relative to UGCAUGU; for B5 it is 0.0205 KA relative to UGCAUGU.
Consider B6, for which the binding signal was 0.015 KA relative to UGCAUGU.
The figure for B7 is 0.00972 KA relative to UGCAUGU; for B8 it is 0.00423 KA relative to UGCAUGU.
The figure for B9 is 0.00565 KA relative to UGCAUGU.
For the molecule B10, the binding signal was 0.00386 KA relative to UGCAUGU.
The figure for B11 is 0.00994 KA relative to UGCAUGU; for B12 it is 0.00776 KA relative to UGCAUGU.
The figure for B13 is 0.00919 KA relative to UGCAUGU; for B14 it is 0.00621 KA relative to UGCAUGU.
The figure for B15 is 0.00643 KA relative to UGCAUGU; for B16 it is 0.00588 KA relative to UGCAUGU; for B17 it is 0.00244 KA relative to UGCAUGU.
Consider B18, for which the binding signal is 0.026 KA relative to UGCAUGU.
To B19 belongs 0.0187 KA relative to UGCAUGU.
Take B20: the binding signal is 0.00258 KA relative to UGCAUGU.

The values above are taken from paper PMC9911399, “Two distinct binding modes provide the RNA-binding protein RbFox with extraordinary sequence specificity”.
